{"source": "paper PMC4792161", "about": "“A novel pyrazole derivative protects from ovariectomy-induced osteoporosis through the inhibition of NADPH oxidase” (Scientific Reports, 2016)", "system": "BMMs", "conditions": "M-CSF and RANKL", "note": "Counter-ions that a name gives are not always drawn."}
{"compound": "CCCc1c(-c2ccccc2)nn(-c2ccccn2)c1O", "note": "[Ewha-18278, 3-phenyl-1-(pyridin-2-yl)-4-propyl-1H-5-hydroxypyrazole HCl]", "values": [{"measurement": "expression levels of NFATc1 and Atp6v0d2", "result": "decreased"}]}
